# In the supplement of paper PMC3334620:
# In all, about 33,000 sequences were measured (“E-score (-0.5 to 0.5)”: median about -0.054, highest 2% from about 0.35 on). This is one part of the list.
# Target: T1, Stb5 (UniProt P38699)
# T1 sequence: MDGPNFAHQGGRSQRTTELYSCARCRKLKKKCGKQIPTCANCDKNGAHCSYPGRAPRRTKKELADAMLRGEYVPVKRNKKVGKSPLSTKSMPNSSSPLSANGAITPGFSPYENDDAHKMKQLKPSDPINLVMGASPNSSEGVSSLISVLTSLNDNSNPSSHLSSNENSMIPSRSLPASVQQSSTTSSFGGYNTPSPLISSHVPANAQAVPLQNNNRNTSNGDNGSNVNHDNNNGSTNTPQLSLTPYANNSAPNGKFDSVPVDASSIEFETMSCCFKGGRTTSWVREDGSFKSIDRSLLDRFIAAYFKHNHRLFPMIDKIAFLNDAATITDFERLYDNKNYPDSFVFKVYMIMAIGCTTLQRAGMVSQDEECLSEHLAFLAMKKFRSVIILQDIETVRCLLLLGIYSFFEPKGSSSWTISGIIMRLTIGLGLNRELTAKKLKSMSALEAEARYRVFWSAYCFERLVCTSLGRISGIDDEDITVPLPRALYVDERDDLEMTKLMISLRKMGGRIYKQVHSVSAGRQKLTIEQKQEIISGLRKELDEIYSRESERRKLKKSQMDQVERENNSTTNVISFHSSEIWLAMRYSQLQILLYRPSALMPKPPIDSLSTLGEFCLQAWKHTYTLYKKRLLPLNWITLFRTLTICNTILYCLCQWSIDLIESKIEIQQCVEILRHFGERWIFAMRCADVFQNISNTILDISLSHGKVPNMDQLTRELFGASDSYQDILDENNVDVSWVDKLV
# Experiment: PBM E-score (8-mer binding enrichment) (E-score (-0.5 to 0.5)); higher = stronger / more preferred TF binding; most listed sequences are background and not binding sites
# Details: protein concentration: 200 nM; construct: GST-full length
# How it was run: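 Universal all-10-mer Agilent arrays, fresh or stripped once, were converted to double-stranded form by primer extension. GST-tagged yeast transcription factors from PURExpress in vitro transcription/translation, full-length or DNA-binding domain only, were applied at about 100-200 nM and detected with fluorescent anti-GST. After masliner normalisation, the Universal PBM Analysis Suite scored each ungapped eight-base word together with its reverse complement by E-score.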
row,Sequence,PBM E-score
1,AGTTCGTA,-0.117
2,CTTGGTTC,-0.0545
3,AAAAAAAT,0.0106
4,CTCAGAGC,-0.269
5,GAAAACGA,0.00708
6,TGGTAACA,-0.127
7,AAATTACC,0.222
8,AGAGTAGC,-0.262
9,GAGAAAAC,-0.0483
10,ATAATTGG,0.0971
11,ATATGAAA,-0.119
12,AATATAGT,-0.0475
13,TCCGACCA,0.3
14,CTGCAGTC,-0.244
15,TATCAGAA,0.0358
16,ATGAGTTC,-0.113
17,ATAACCGG,0.213
18,AGACTATG,-0.119
19,GTATTATA,0.286
20,AGATGTCG,-0.0177
21,ACCCGCGA,0.115
22,AACTCGGG,0.145
23,AGGCGGCA,0.238
24,CCTAAGAC,0.0703
25,GGCAACCC,-0.0389

row,Sequence,PBM E-score
1,CATGGTCG,0.159
2,AACACATT,-0.0546
3,CAACACTA,-0.163
4,GAAATGGA,-0.131
5,ACTATGCT,-0.0393
6,AGTTGTCG,0.127
7,TTAAATAA,0.151
8,TCGCGCAA,-0.136
9,ACAAGGCG,-0.0784
10,ATCCGTAA,0.0101
11,CAGGAATG,-0.384
12,CGTGGAGC,0.0703
13,CGCGCCTA,0.216
14,GAGCAGAA,0.1
15,TGAGTAAA,-0.129
16,ACTTGGAT,-0.199
17,GGATAGGA,-0.00719
18,GAGGGCGC,0.0133
19,GGAGAGCA,-0.154
20,CATAGATG,-0.0624
21,GACGCAGA,-0.0333
22,GGAAGGAC,-0.0635
23,GAGTTAAA,0.0373
24,AATCGTTC,-0.166
25,ATCTGAAG,-0.254

row,Sequence,PBM E-score
1,AGTTGATG,-0.212
2,CCTGGGTC,-0.0597
3,AAGTACAG,-0.204
4,CGCAGCAA,-0.192
5,AAATTGCT,-0.183
6,GGGCGCTA,0.0264
7,ATCCCAAG,-0.0561
8,ACCCACAC,-0.0635
9,TGTCTAAA,-0.0274
10,CGTCCAAG,-0.0248
11,ATCTTATC,-0.0213
12,CCACAGTA,-0.229
13,ACGGGCAG,-0.0575
14,GAGATTAA,-0.142
15,ATTTGTTA,-0.0737
16,AGAGGCTC,-0.00769
17,CATTAATG,-0.0431
18,GGGACTAC,0.144
19,AATATGCC,0.187
20,CTTGGTAC,0.0786
21,CTGATTAA,0.0693
22,CTTTTCAC,-0.11
23,CAGTAATA,0.0883
24,CGAGCGGA,0.385
25,CAATGCAC,-0.142

row,Sequence,PBM E-score
1,CAAGGTGG,-0.0922
2,CACAACGA,0.0581
3,CGCTGCCC,-0.0156
4,CCTTGTGA,-0.0236
5,CGGTTTCA,0.245
6,AGAAATTC,-0.133
7,ACCACCAC,0.0235
8,AGCTAAGG,-0.223
9,AAATCGCA,-0.0561
10,GCAGATTA,-0.0933
11,CAGTGCCG,0.23
12,CGGGGTAG,0.191
13,AATTATTC,0.0099
14,CAGAGAGA,-0.3
15,AAATCCAA,-0.153
16,ATAACTGG,0.081
17,GAAGGAGA,-0.143
18,CTAGCAAG,-0.269
19,GGAGAACA,-0.00473
20,CAAACCTG,-0.18
21,GGTAAAAC,0.165
22,ACAATCCG,0.0737
23,ATGGAGGA,-0.189
24,GAGGCCTA,-0.163
25,AGGGCGCA,-0.0165

row,Sequence,PBM E-score
1,CTGAGCGA,-0.239
2,CACGTATC,-0.0389
3,CAGGGTCA,-0.147
4,CTGTAGAA,-0.195
5,AGAGGAAA,-0.0456
6,GAGTCAGA,-0.0127
7,AAAAACGG,0.137
8,CCAATTAA,-0.137
9,AGTGTTAA,-0.0434
10,ACTAACAG,-0.0446
11,AACTCCGA,0.463
12,ACACAGAG,-0.0564
13,CCGTTATA,0.272
14,GATAGCAA,-0.074
15,ATGCATTA,-0.262
16,AGGACAAT,-0.175
17,ACTGAGCC,-0.125
18,AAAGCTTT,0.00048
19,AGTACGGA,0.205
20,ACTCAGAC,-0.132
21,ACAGCCCG,0.198
22,AAAACAGT,0.0132
23,ATAGTCTC,-0.00316
24,ACGCCTTG,-0.19
25,AGTCTGAA,-0.274

row,Sequence,PBM E-score
1,AAAAGGCC,0.254
2,AGAGAGAA,-0.236
3,CTGATGGA,-0.139
4,CCGGCTGC,0.111
5,CAATAAAA,-0.16
6,AATCTCTG,-0.302
7,ACATCAAC,-0.0505
8,AAACCCAG,-0.132
9,CCACCAAG,-0.0259
10,GACCAAGC,-0.0319
11,AATAACAC,0.28
12,AACATCCA,-0.0959
13,ATCAATGC,0.0163
14,GGACAAAC,0.0886
15,ATAGCCAG,-0.269
16,GAAAAGGA,-0.0613
17,CCTGATCG,-0.0812
18,ATTTGTGA,0.021
19,AAATTGAT,-0.0183
20,TCCTGCCA,-0.236
21,GAGCTAAA,-0.013
22,ACCTCCAA,-0.216
23,ATGGAAAA,-0.0267
24,ACGGGTCA,-0.0174
25,AAATACAT,-0.103

row,Sequence,PBM E-score
1,ACAACTGC,-0.246
2,AGGGACCT,-0.182
3,ATGATCTG,-0.186
4,CGCTGTGC,0.116
5,CAACATCC,0.00137
6,CGACAAGC,0.141
7,CCGGGAGC,0.16
8,AGGCTGAG,-0.028
9,CCAAAGTA,-0.0253
10,GAAGTTAA,-0.0172
11,CAAACCAC,-0.0998
12,ACATCAAT,-0.12
13,AGTACCCC,0.0442
14,AGGATGGA,-0.0596
15,ATTGCAAT,0.0889
16,ATCGACAA,-0.137
17,AGCATGTC,-0.214
18,GGATAACA,-0.0362
19,ACGTTCAA,-0.0811
20,ATATTAGG,-0.19
21,ATCAAAGA,-0.248
22,GATTCGGC,0.23
